The whole screen tested about 310,000 compounds, of which about 14,000 (4.5%) showed an effect of 50% or more. Effects have a minus sign here. The list shows a part of the results.
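Also: peak tail current of the secondary pulse compared with the same well before compound.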

This assay deals with human ether-à-go-go-related gene (hERG) potassium channel (human, UniProt Q12809). Nature of the assay: primary screen, population patch clamp on CHO cells stably expressing hERG.
human ether-à-go-go-related gene (hERG) potassium channel, sequence (Q12809 whole entry, looked up): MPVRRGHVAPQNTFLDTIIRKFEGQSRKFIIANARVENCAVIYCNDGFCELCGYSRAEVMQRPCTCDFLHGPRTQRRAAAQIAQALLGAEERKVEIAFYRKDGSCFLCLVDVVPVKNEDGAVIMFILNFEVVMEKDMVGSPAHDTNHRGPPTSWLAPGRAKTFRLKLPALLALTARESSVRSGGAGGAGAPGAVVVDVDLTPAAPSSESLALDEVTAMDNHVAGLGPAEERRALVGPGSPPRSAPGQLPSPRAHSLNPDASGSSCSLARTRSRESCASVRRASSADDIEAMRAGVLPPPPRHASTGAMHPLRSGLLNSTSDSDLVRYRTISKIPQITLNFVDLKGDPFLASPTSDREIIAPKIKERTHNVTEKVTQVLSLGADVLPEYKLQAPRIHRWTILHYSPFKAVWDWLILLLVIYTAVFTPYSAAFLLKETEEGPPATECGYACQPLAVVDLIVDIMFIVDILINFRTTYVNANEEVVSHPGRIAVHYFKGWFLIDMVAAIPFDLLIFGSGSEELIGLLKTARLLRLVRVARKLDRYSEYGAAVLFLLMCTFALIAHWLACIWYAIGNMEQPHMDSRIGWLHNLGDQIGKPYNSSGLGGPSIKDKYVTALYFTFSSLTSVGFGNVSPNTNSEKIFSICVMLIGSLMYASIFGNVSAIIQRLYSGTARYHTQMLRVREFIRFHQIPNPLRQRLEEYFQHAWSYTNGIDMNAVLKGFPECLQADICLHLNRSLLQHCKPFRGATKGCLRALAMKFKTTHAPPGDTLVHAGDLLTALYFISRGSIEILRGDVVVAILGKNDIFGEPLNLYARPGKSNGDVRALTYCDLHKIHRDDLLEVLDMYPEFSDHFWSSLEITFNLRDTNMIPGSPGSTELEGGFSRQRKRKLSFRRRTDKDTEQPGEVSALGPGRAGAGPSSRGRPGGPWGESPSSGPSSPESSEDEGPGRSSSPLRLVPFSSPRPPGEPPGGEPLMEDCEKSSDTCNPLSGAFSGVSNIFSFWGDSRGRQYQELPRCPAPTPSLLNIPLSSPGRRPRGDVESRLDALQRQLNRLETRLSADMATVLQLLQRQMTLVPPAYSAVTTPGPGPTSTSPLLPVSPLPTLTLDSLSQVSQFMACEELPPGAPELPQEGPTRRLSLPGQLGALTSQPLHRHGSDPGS
Turning to `Cc1ccc(-c2noc(CN3CCOCC3)n2)cc1`, the “hERG current change (%, negative = inhibition) at 10uM” value amounted to 17.6%. Turning to `Cc1oc(-c2cccc(C(F)(F)F)c2)nc1CN1CCN(c2ccccn2)CC1`, the “hERG current change (%, negative = inhibition) at 10uM” value was -52.5%. To `Cc1oc(-c2ccc3c(c2)OCCO3)cc1C(=O)NC(CCC(=O)O)C(=O)O` (stereo not shown) belongs 6.1%; to `CCc1ccccc1NC(=O)c1ccc2nc(N3CCOCC3)sc2c1`, -7.23%; to `COc1cc(OC)c2ccc(=O)oc2c1C(CCN1CCCCC1)c1ccc(N(C)C)cc1` (stereo not shown), -16%. The figure for `CC1=CC2=NC(=O)/C(=C/c3coc4ccc(Cl)cc4c3=O)C(=N)N2O1` is -9.44%; for `COc1ccccc1C(=O)Nc1ccc(S(=O)(=O)N2CCc3ccccc32)cc1` it is -77%.

On to `O=C1CN(C(=O)C2CCC(=O)N(CCc3ccc(Cl)cc3)C2)CCN1` (stereo not shown), for which the “hERG current change (%, negative = inhibition) at 10uM” value is listed as 17.4%. For `N#Cc1ccc(C(=O)Nc2cc(S(=O)(=O)N3CCCC3)ccc2OCC(F)(F)F)cc1`, the “hERG current change (%, negative = inhibition) at 10uM” value was -25.2%. In the case of `Cc1c(N=Nc2c(O)n(-c3ccc(Br)cc3)c(=O)[nH]c2=O)c(=O)n(-c2ccccc2)n1C`, the “hERG current change (%, negative = inhibition) at 10uM” value was 14.7%.

Turning to `Nc1ccc(C(=O)N2CCN(S(=O)(=O)c3ccc(Cl)s3)CC2)cc1[N+](=O)[O-]`, the “hERG current change (%, negative = inhibition) at 10uM” value is given as -36.2%.

With `O=C(NC1CCCCCC1)c1ccc(CN2CCOCC2)cc1`, the “hERG current change (%, negative = inhibition) at 10uM” value came out at 11.3%. On to `O=C(CSc1ccc(-c2ccccc2)nn1)N1CCOCC1`, for which the “hERG current change (%, negative = inhibition) at 10uM” value was -4.41%. For `C/C(=N\NC(=O)CNc1cccc(Cl)c1C)C1CC1`, the “hERG current change (%, negative = inhibition) at 10uM” value came to 6.52%. Consider `Cc1ccccc1N1CCN(CCN2C(=O)CC(=C3c4ccccc4-c4ccccc43)C2=O)CC1`, for which the “hERG current change (%, negative = inhibition) at 10uM” value is 6.43%. Consider `COc1ccc(N(C(=O)c2cnccn2)C(C(=O)NC2CCCCC2)c2ccccc2)cc1` (stereo not shown), for which the “hERG current change (%, negative = inhibition) at 10uM” value was -6.51%. In the case of `O=C(COc1ccc2c3c(c(=O)oc2c1)CCC3)NC1CCN(Cc2ccccc2)CC1`, the “hERG current change (%, negative = inhibition) at 10uM” value is on record as -24.9%. As for `CC(=O)Nc1cc2cc(NS(=O)(=O)c3ccc(C)cc3)ccc2oc1=O`, the “hERG current change (%, negative = inhibition) at 10uM” value was determined as 14.9%.

In the case of `Cc1ccc(S(=O)(=O)NCC(c2ccco2)N2CCOCC2)cc1` (stereo not shown), the “hERG current change (%, negative = inhibition) at 10uM” value is on record as -7.6%. For `O=C(CCCCCNC(=O)c1ccccc1Cl)N/N=C/c1ccco1`, the “hERG current change (%, negative = inhibition) at 10uM” value was 18.1%. To `Cc1onc(-c2c(Cl)cccc2Cl)c1C(=O)n1nnc2ccccc21` belongs -3.48%.

Turning to `COc1ccc(OC)c(NC(=O)CN(C)S(=O)(=O)c2ccc(Cl)cc2)c1`, the “hERG current change (%, negative = inhibition) at 10uM” value is -12.4%.

Turning to `O=C(CCN1C(=O)C2C3C=CC(C3)C2C1=O)NCCN1CCCc2ccccc21` (stereo not shown), the “hERG current change (%, negative = inhibition) at 10uM” value is given as -9.32%. Turning to `CCCNC(=O)NC(=O)COc1c(F)c(F)cc(F)c1F`, the “hERG current change (%, negative = inhibition) at 10uM” value is on record as -7.17%. For the molecule `CCn1nc(C(=O)OCc2c(C)noc2C)c2ccccc2c1=O`, the “hERG current change (%, negative = inhibition) at 10uM” value is on record as -7.92%. Regarding `O=C(CSc1nnc(NC(=O)c2ccccc2[N+](=O)[O-])s1)NCc1ccco1`, the “hERG current change (%, negative = inhibition) at 10uM” value is 0.0498%.

For the molecule `COc1ccc(C2=NN(C(=O)c3cccs3)C(O)(C(F)(F)F)C2)cc1` (stereo not shown), the “hERG current change (%, negative = inhibition) at 10uM” value is 14.8%. In the case of `Cc1cc(Cl)ccc1OC(C)C(=O)OCC(=O)Nc1ccc2[nH]c(=O)[nH]c2c1` (stereo not shown), the “hERG current change (%, negative = inhibition) at 10uM” value is -3.04%. On to `CC1(C)Cc2ccccc2C(COc2ccccc2)=N1.Cl`, for which the “hERG current change (%, negative = inhibition) at 10uM” value is recorded as 21.3%. With `Fc1ccc(NC(=S)N2CCN(C/C=C/c3ccccc3)CC2)c(F)c1`, the “hERG current change (%, negative = inhibition) at 10uM” value is -25.8%. In the case of `Cn1c(SCC(=O)N/N=C/C=C\c2ccco2)nc2ccccc21`, the “hERG current change (%, negative = inhibition) at 10uM” value was -50.6%. `CN(CC(=O)Nc1ccccc1Br)C(=O)c1ccc(COc2ccccc2)cc1`: the “hERG current change (%, negative = inhibition) at 10uM” value was determined as 9.54%. Regarding `CCCC(C)C(=O)Nc1cc([N+](=O)[O-])ccc1Cl` (stereo not shown), the “hERG current change (%, negative = inhibition) at 10uM” value came to 7.26%. For the molecule `Cc1cc(=O)oc2cc(OCC(=O)NCCCn3ccnc3)ccc12`, the “hERG current change (%, negative = inhibition) at 10uM” value is given as 7.58%.

Regarding `C=C1CN(CC(=O)OC)S(=O)(=O)c2ccccc21`, the “hERG current change (%, negative = inhibition) at 10uM” value is listed as 20.2%. As for `Nc1ccc(S(=O)(=O)N2CCCc3ccccc32)cc1`, the “hERG current change (%, negative = inhibition) at 10uM” value was -12.1%. Regarding `COc1cccc(C2=NOC(C(=O)NCc3ccccc3)C2)c1` (stereo not shown), the “hERG current change (%, negative = inhibition) at 10uM” value is on record as -0.722%.

`CC(C)C[C@@H](CN=[N+]=[N-])N1CCN(C)CCC1=O`: the “hERG current change (%, negative = inhibition) at 10uM” value is reported as 14%. Consider `Cc1ccc(NC(=O)c2ccccc2OCC(=O)Nc2ccccc2F)cc1S(=O)(=O)N(C)C`, for which the “hERG current change (%, negative = inhibition) at 10uM” value is recorded as 1.96%. `c1ccc(N2CCN(c3cnccn3)CC2)nc1`: the “hERG current change (%, negative = inhibition) at 10uM” value stood at 2.29%. For `COC(=O)C1=C(C(=O)OC)N2C=CC=CC2(C)C(C(=O)OC)=C1C(=O)OC` (stereo not shown), the “hERG current change (%, negative = inhibition) at 10uM” value is -5.49%.

Take `COc1ccc(CCNC(=O)CCCn2c(=O)[nH]c3cc(OC)c(OC)cc3c2=O)cc1OC`: the “hERG current change (%, negative = inhibition) at 10uM” value was determined as 2.91%.

Take `Cc1ccc(CN(Cc2ccccc2)C(=S)NCC(=O)N2CCC3(CC2)OCCO3)o1`: the “hERG current change (%, negative = inhibition) at 10uM” value was -38.3%.

Values taken from article PMC4336329 (PLoS ONE, 2015).
